Measured values taken from article PMC4336329 (PLoS ONE, 2015).
Out of some 310,000 compounds screened, about 14,000 (4.5%) showed an effect of 50% or more. The effect is printed as a negative number. This is one part of the list.

The compounds below were run against human ether-à-go-go-related gene (hERG) potassium channel (human, UniProt Q12809) (assay: primary screen, population patch clamp on CHO cells stably expressing hERG).
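Note: peak tail current of the secondary pulse compared with the same well before compound.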

human ether-à-go-go-related gene (hERG) potassium channel, sequence (Q12809 whole entry, looked up): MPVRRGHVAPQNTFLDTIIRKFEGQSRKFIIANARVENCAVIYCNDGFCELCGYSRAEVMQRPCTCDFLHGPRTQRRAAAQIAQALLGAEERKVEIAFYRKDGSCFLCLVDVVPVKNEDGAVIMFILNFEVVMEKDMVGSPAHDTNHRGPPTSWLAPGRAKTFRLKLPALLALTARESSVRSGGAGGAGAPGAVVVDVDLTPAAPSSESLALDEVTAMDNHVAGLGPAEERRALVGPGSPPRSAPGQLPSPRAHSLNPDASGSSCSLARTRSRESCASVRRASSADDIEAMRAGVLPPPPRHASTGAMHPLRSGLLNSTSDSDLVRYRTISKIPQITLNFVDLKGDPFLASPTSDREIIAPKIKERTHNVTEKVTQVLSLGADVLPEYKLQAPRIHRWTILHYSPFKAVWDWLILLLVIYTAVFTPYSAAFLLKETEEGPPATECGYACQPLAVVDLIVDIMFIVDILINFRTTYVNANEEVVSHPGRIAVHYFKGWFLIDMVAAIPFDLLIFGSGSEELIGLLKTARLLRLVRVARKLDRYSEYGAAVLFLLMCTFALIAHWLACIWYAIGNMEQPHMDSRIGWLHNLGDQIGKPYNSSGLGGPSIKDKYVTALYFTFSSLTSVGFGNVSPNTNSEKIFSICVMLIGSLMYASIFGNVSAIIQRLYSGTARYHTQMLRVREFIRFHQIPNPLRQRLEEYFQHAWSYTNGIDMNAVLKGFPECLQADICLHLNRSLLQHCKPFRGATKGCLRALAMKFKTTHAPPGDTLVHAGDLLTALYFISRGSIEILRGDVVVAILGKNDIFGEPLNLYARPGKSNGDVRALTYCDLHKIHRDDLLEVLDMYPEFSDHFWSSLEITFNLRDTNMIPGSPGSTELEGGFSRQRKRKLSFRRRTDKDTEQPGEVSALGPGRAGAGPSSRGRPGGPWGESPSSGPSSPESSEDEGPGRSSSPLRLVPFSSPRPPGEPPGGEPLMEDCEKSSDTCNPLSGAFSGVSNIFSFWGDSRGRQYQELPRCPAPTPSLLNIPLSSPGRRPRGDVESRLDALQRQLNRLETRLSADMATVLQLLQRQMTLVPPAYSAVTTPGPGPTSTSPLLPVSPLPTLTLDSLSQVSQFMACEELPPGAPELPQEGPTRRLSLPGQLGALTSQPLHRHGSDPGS

| SMILES | hERG current change (%, negative = inhibition) at 10uM [%] |
| --- | --- |
| Cn1c(=O)cc(OCC(=O)N2CCN(Cc3ccc4c(c3)OCO4)CC2)c2ccccc21 | -33.4 |
| CCc1ccc(NC(=O)CSc2nnc(Cc3cccn3C)n2-c2ccc(OC)cc2)cc1 | -19.5 |
| Cc1cc(C)cc(C(=O)OCC(=O)NCC(F)(F)F)c1 | 1.96 |
| Cc1ccsc1/C=N\NC(=O)c1n[nH]c2c1CCC2 | -2.09 |
| CCC1CCCCN1C(=O)CSc1nnc(-c2cccc(Cl)c2)o1 (stereo not shown) | -38.5 |
| O=C(O)C(=O)O.O=C(c1ccccc1)c1ccc(OCCCCN2CCCCC2)cc1 | -52.6 |
| C=CCN(c1ccccc1)S(=O)(=O)c1cccc(C(=O)Nc2cccc(C)n2)c1 | -21.7 |
| NC(=O)c1ccccc1OCC(=O)NS(=O)(=O)c1ccc(Cl)cc1 | 5.11 |
| Cc1ccccc1Cn1cc(NC(=O)CCCn2nc([N+](=O)[O-])cc2C)cn1 | -7.52 |
| Cc1cc(NS(=O)(=O)c2ccc(NC(=O)c3ccco3)cc2)no1 | 3.51 |
| O=C(/C=C/c1ccc2c(c1)OCCCO2)c1ccc2ccccc2c1O | -8.79 |
| O=C(NNC(=O)c1sccc1-n1cccc1)c1cccs1 | 8.21 |
| CCOc1c(Cl)cc(CNCc2ccccn2)cc1OC.Cl | -18.7 |
| CC1CCCN(C(=O)c2cc(N3C(=O)C4C5CCC(C5)C4C3=O)ccc2Cl)C1 (stereo not shown) | 2.82 |
| C=CCn1c(SCC(=O)c2c(N)n(C)c(=O)n(C)c2=O)nnc1-c1ccncc1 | 17.5 |
| O=C(N/N=C/c1ccc(-c2ccccc2)o1)c1ccccc1O | 10.6 |
| O=C1C(c2c(O)[nH]c3ccccc23)=Nc2ccccc21 | 16.5 |
| COc1ccccc1Nc1ncccc1C(=O)NCc1ccccc1 | 0.328 |
| O=C(CCc1nc2ccccc2c(=O)[nH]1)Nc1cc(Cl)ccc1N1CCCC1 | 10.6 |
| COc1cc(NC(=S)NCc2ccco2)cc(OC)c1OC | 5.61 |
| COc1ccc(NS(=O)(=O)c2cc(NC(=O)/C=C/c3cccs3)ccc2N2CCOCC2)cc1 | -14.4 |
| Cc1ccc(S(=O)(=O)CCC(=O)OCC(=O)c2c[nH]c3ccccc23)cc1 | -8.93 |

| SMILES | hERG current change (%, negative = inhibition) at 10uM [%] |
| --- | --- |
| Cn1cc(Cl)c(-c2n[nH]c(=S)n2C2CCCCC2)n1 | 11.6 |
| COc1cccc(CNC(=O)C2CCN(S(=O)(=O)c3ccc4c(c3)NC(=O)C(C)S4)CC2)c1 (stereo not shown) | -12.6 |
| COc1cc(C(=O)NCCCNc2nc3c(C)cc(C)cc3cc2C#N)cc(OC)c1OC | 17.8 |
| COc1ccc(Cc2nnc(NN)[nH]c2=O)cc1OC | 12.4 |
| CCCCN(C(=O)c1ccc(C)c(S(=O)(=O)N2CCOCC2)c1)c1c(N)n(CC(C)C)c(=O)[nH]c1=O | -48.6 |
| O=[N+]([O-])c1cc(-c2ccc([As](=O)(O)O)cc2)ccc1[As](=O)(O)O | 24.1 |
| CC(C)Nc1nc(NC(C)C)nc(Oc2ccc(OCc3ccccc3)nn2)n1 | 3.84 |
| COCCn1c(N)c(N(Cc2ccccc2)C(=O)Cc2ccccc2F)c(=O)[nH]c1=O | 5.33 |
| O=C(O)CCn1cc(/C=C/C(=O)c2ccc(Cl)cc2)c(-c2ccc(Br)cc2)n1 | 0.108 |
| CN(C)C=O.COc1ccc(-n2cnnc2SCC(=O)Nc2ccccc2F)cc1 | -15.7 |
| C=CC(=O)NN(C)c1ncc(C(F)(F)F)cc1Cl | 23.3 |
| CCC(=O)N(CC)C1=C(O)c2ccccc2C(=O)C1=O | -2.52 |
| O=[N+]([O-])c1cccc2c([N+](=O)[O-])cccc12 | 8.81 |
| Cc1cccc(S(=O)(=O)Nc2ccc(-c3cn4ccccc4n3)cc2)c1 | 10.3 |
| COc1ccc(NC(=O)CN(C)C(=O)Cc2ccc3c(c2)OCCO3)cc1 | 15.5 |
| Cc1cn(C2CC(OC(=O)C(C)C)C(CO)O2)c(=O)[nH]c1=O (stereo not shown) | 1.06 |
| O=C(COC(=O)c1ccccc1SCC(=O)N1CCCC1)Nc1ccccc1C(F)(F)F | 4.16 |
| CCCCS(=O)c1snnc1C (stereo not shown) | 20.4 |
| O=C1Nc2ccc(NS(=O)(=O)c3cccs3)c3cccc1c23 | -12.3 |
| Cn1c2ccccc2c2c(C(=O)N3CCN(c4ccc(F)cc4)CC3)cn(C3CCCC3)c(=O)c21 | -24.3 |
| O=S(=O)(N1CCCCC1)n1nnc2ccccc21 | -32.6 |
